Test results reported in the supplement of paper PMC4604168 (melanoma cell lines).
The list shows a part of the results. Most values come without repeats; read them as rough.

test system: WM1745; test: cell count relative to DMSO control; melanoma cells; higher = more viable cells; conditions: library dose: low library concentration; 72 h
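Note: cell number obtained by counting DAPI-stained nuclei in high-throughput microscope images with image analysis software, screen run in 1,536-well plates.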

SMILES	cell count [%]
O=C(Nc1ccccc1)c1cc([N+](=O)[O-])ccc1Cl + N#Cc1c(O)c2c(-c3ccc(-c4ccccc4O)cc3)csc2[nH]c1=O [A769662] (first compound 2 µM, partner dose 2 µM)	108
Cc1cc(N2CCOCC2)cc2[nH]c(-c3c(NC[C@@H](O)c4cccc(Cl)c4)cc[nH]c3=O)nc12 + COc1ccc2c(c1)CCC1C2CCC2(C)C(NCCCCCCN3C(=O)C=CC3=O)CCC12 [U73122] (first compound 0.2 µM, partner dose 0.4 µM)	69
O=C(O)c1ccc2c(c1)nc(Nc1cccc(Cl)c1)c1ccncc12 + c1cc(-c2cnn3cc(-c4ccc(OCCN5CCCCC5)cc4)cnc23)ccn1 [Dorsomorphin] (first compound 0.4 µM, partner dose 0.4 µM)	66.7
O=C(Nc1cc(C(F)(F)F)cc(C(F)(F)F)c1)c1cc(Cl)ccc1O + CCN(CC)CCNC(=O)c1c(C)[nH]c(/C=C2\C(=O)Nc3ccc(F)cc32)c1C [sunitinib] (first compound 0.016 µM, partner dose 0.4 µM)	91.9
Cc1cc(N2CCOCC2)cc2[nH]c(-c3c(NC[C@@H](O)c4cccc(Cl)c4)cc[nH]c3=O)nc12 + COc1cc2ncnc(Nc3ccc(Oc4ccccc4)cc3)c2cc1OC [SrcI1] (first compound 0.2 µM, partner dose 2 µM)	77.2
O=C(Nc1ccccc1)c1cc([N+](=O)[O-])ccc1Cl + COc1cc(N2CCC(N3CCN(C)CC3)CC2)ccc1Nc1ncc(Cl)c(Nc2ccccc2S(=O)(=O)C(C)C)n1 [NVP-TAE684] (first compound 2 µM, partner dose 0.08 µM)	81.7
O=C(Nc1cc(C(F)(F)F)cc(C(F)(F)F)c1)c1cc(Cl)ccc1O + NC(=O)Nc1cc(-c2cccc(F)c2)sc1C(=O)N[C@H]1CCCNC1 [AZD7762] (first compound 0.016 µM, partner dose 0.02 µM)	93.5
Cn1nnc2c(C(N)=O)ncn2c1=O [temozolomide] + O=C(Nc1cccc(Cl)c1)Nc1ncc(CCNc2ncnc3ccsc23)s1 [SNS314] (first compound 2 µM, partner dose 0.0008 µM)	103
O=C(O)c1ccc2c(c1)nc(Nc1cccc(Cl)c1)c1ccncc12 + O=C(O)c1ccc(-c2c[nH]c3ncc(-c4ccccc4)cc23)cc1C1CCCC1 [GSK650394] (first compound 0.4 µM, partner dose 0.16 µM)	86.9
O=C(Nc1cc(C(F)(F)F)cc(C(F)(F)F)c1)c1cc(Cl)ccc1O + OCc1c[nH]c2ccccc12 [Indole-3-carbinol] (first compound 0.016 µM, partner dose 0.8 µM)	110
O=C(O)[C@@H]1[O][Sb](=[O])([O][Sb]2(=[O])[O][C@H]([C@H](O)CO)[C@H](O)[C@H](C(=O)O)[O]2)[O][C@H]([C@H](O)CO)[C@@H]1O (stereo partly specified) [stibogluconate] + C[C@]1(c2nc3c(C(N)=O)cccc3[nH]2)CCCN1 [Veliparib] (first compound 2 µM, partner dose 1.4 µM)	95.8
O=C(Nc1cc(C(F)(F)F)cc(C(F)(F)F)c1)c1cc(Cl)ccc1O + O=C(CCCCCCC(=O)Nc1ccccc1)NO [vorinostat] (first compound 0.016 µM, partner dose 0.08 µM)	106
O=C(Nc1cc(C(F)(F)F)cc(C(F)(F)F)c1)c1cc(Cl)ccc1O + CC1(C)NC(=O)N(c2ccc([N+](=O)[O-])c(C(F)(F)F)c2)C1=O [nilutamide] (first compound 0.016 µM, partner dose 1 µM)	110
O=C(O)c1ccc2c(c1)nc(Nc1cccc(Cl)c1)c1ccncc12 + OCc1c[nH]c2ccccc12 [Indole-3-carbinol] (first compound 0.4 µM, partner dose 0.8 µM)	106
Cn1nnc2c(C(N)=O)ncn2c1=O [temozolomide] + COc1cc(Nc2ncc(F)c(Nc3ccc4c(n3)NC(=O)C(C)(C)O4)n2)cc(OC)c1OC [Tamatinib] (first compound 2 µM, partner dose 0.4 µM)	72.9
Cc1cc(N2CCOCC2)cc2[nH]c(-c3c(NC[C@@H](O)c4cccc(Cl)c4)cc[nH]c3=O)nc12 + CCN(CC)CCCCNc1ncc2cc(-c3cc(OC)cc(OC)c3)c(NC(=O)NC(C)(C)C)nc2n1 [PD173074] (first compound 0.2 µM, partner dose 0.1 µM)	78.6
